Columns and labels:
[1] = biological target: scCSGal-1–6H M120L wt-ran-bio (human)
[2] = biological target: scCSGal-1–6H M120L N50AzK-ss-bio (human); assay: BLI; Octet RED96e; streptavidin tips loaded with 60 ug/mL biotinylated scCSGal-1 protein; vWF at 25 ug/mL as analyte; association 600 s, dissociation 150 s; PBS with 0.05% Tween 20 and 0.1% BSA, pH 7.4; 25 °C, 1000 rpm; read-out Rt = response at 600 s
[3] = biological target: scCSGal-1–6H M120L N144AzK-ss-bio (human); assay: as above
[4] = biological target: scCSGal-1–6H M120L E138AzK-ss-bio (human); assay: as above
[5] = biological target: scCSGal-1–6H M120L wt-ran-bio (human); assay: as above
[6] = biological target: scCSGal-1–6H M120L E137AzK-ss-bio (human); assay: as above
[7] = biological target: scCSGal-1–6H M120L E137AzK-ran-bio (human); assay: as above

BLI response at 160 ug/mL vWF [1]: < 0.06 nm
Rt (specific BLI response at 600 s) [2]: 0.051 nm
Rt (specific BLI response at 600 s) [3]: 0.4 nm
Rt (specific BLI response at 600 s) [4]: 0.23 nm
Rt (specific BLI response at 600 s) [5]: 0.049 nm
Rt (specific BLI response at 600 s; reproducibility test, n = 8) [5]: 0.049 nm
Rt (specific BLI response at 600 s) [6]: 0.58 nm
Rt (specific BLI response at 600 s) [7]: 0.062 nm
Substance: von Willebrand factor (from UniProt P04275 764-2813) (natural protein)

— article PMC11660155
